In the supplement of paper PMC4604168 (melanoma cell lines):
Some of the results follow. Many values rest on one well or one pass, so single values are uncertain.

What was measured:
Assay in all cases: cell count relative to DMSO control; melanoma cells; higher = more viable cells
Settings in all cases: library dose: low library concentration; 72 h
MZ2-MEL = system: MZ2-MEL
MeWo = system: MeWo
RPMI7951 = system: RPMI7951
RVH-421 = system: RVH-421
SkMel28 = system: SkMel28
SkMel2 = system: SkMel2
SkMel30 = system: SkMel30
SkMel5 = system: SkMel5
UACC257 = system: UACC257
UACC62 = system: UACC62
WM115 = system: WM115
WM1716 = system: WM1716
WM1745 = system: WM1745
WM3526 = system: WM3526
WM3619 = system: WM3619
WM451Lu = system: WM451Lu
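Further: cell number obtained by counting DAPI-stained nuclei in high-throughput microscope images with image analysis software, screen run in 1,536-well plates.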

Row | SMILES | cell count (MZ2-MEL) [%] | cell count (MeWo) [%] | cell count (RPMI7951) [%] | cell count (RVH-421) [%] | cell count (SkMel28) [%] | cell count (SkMel2) [%] | cell count (SkMel30) [%] | cell count (SkMel5) [%] | cell count (UACC257) [%] | cell count (UACC62) [%] | cell count (WM115) [%] | cell count (WM1716) [%] | cell count (WM1745) [%] | cell count (WM3526) [%] | cell count (WM3619) [%] | cell count (WM451Lu) [%]
1 | CN(c1ncccc1CNc1nc(Nc2ccc3c(c2)CC(=O)N3)ncc1C(F)(F)F)S(C)(=O)=O + N#Cc1c(O)c2c(-c3ccc(-c4ccccc4O)cc3)csc2[nH]c1=O [A769662] (first compound 0.08 µM, partner dose 2 µM) | 99.8 | 111 | 89.6 | 105 | 94.1 | 89 | 107 | 83.9 | 89.8 | 115 | 84.9 | 108 | 81.3 | 94.3 | 90.9 | 90.3
2 | CN(c1ncccc1CNc1nc(Nc2ccc3c(c2)CC(=O)N3)ncc1C(F)(F)F)S(C)(=O)=O + CCc1ccc(CCOc2ccc(CC3SC(=O)NC3=O)cc2)nc1 [pioglitazone] (first compound 0.08 µM, partner dose 2 µM) | 94.4 | 88.9 | 83.2 | 88.8 | 83 | 89.7 | 101 | 70.2 | 102 | 72.5 | 83.7 | 75.5 | 76.6 | 97.9 | 130 | 95.6
3 | C=C(c1ccc(C(=O)O)cc1)c1cc2c(cc1C)C(C)(C)CCC2(C)C [Bexarotene] + COc1cc(Nc2ncc(F)c(Nc3ccc4c(n3)NC(=O)C(C)(C)O4)n2)cc(OC)c1OC [Tamatinib] (first compound 2 µM, partner dose 0.4 µM) | 94.1 | 77 | 90.3 | 111 | 59.4 | 84.8 | 93.8 | 83.2 | 86.9 | 81 | 84.5 | 92.6 | 72.9 | 71.3 | 93.6 | 76.1
4 | CS(=O)(=O)c1ccc(C(=O)Nc2ccc(Cl)c(-c3ccccn3)c2)c(Cl)c1 [vismodegib] + NCC(=O)Nc1ccc(-n2nc(C(F)(F)F)cc2-c2ccc3c(ccc4ccccc43)c2)cc1 [OSU03012] (first compound 1 µM, partner dose 1 µM) | 105 | 56.5 | 104 | 108 | 96.2 | 81.3 | 46.3 | 87.4 | 80 | 104 | 101 | 94.5 | 116 | 58.4 | 92.8 | 60.8
5 | CS(=O)(=O)c1ccc(C(=O)Nc2ccc(Cl)c(-c3ccccn3)c2)c(Cl)c1 [vismodegib] + COc1ccc2c(c1)CCC1C2CCC2(C)C(NCCCCCCN3C(=O)C=CC3=O)CCC12 [U73122] (first compound 1 µM, partner dose 0.4 µM) | 99.2 | 108 | 76.9 | 126 | 128 | 107 | 153 | 95.5 | 101 | 109 | 93.6 | 82.1 | 96.7 | 128 | 113 | 93.1
6 | CS(=O)(=O)c1ccc(C(=O)Nc2ccc(Cl)c(-c3ccccn3)c2)c(Cl)c1 [vismodegib] + O=c1cc(-c2cccc3c2Sc2ccccc2S3)oc(N2CCOCC2)c1 [KU55933] (first compound 1 µM, partner dose 1 µM) | 100 | 104 | 106 | 140 | 95.9 | 106 | 112 | 103 | 84.3 | 94.8 | 96.6 | 109 | 101 | 116 | 104 | 101
7 | CCCS(=O)(=O)Nc1ccc(F)c(C(=O)c2c[nH]c3ncc(Cl)cc23)c1F + O=C1NC(=O)/C(=C/c2ccc(-c3ccc(F)cc3O)o2)S1 [AS252424] (first compound 0.08 µM, partner dose 1 µM) | 86.2 | 102 | 107 | 76.3 | 69.6 | 88.3 | 90.6 | 110 | 70.1 | 54.2 | 102 | 116 | 82.7 | 70.3 | 74.4 | 106
8 | CS(=O)(=O)c1ccc(C(=O)Nc2ccc(Cl)c(-c3ccccn3)c2)c(Cl)c1 [vismodegib] + C=CCn1c(=O)c2cnc(Nc3ccc(N4CCN(C)CC4)cc3)nc2n1-c1cccc(C(C)(C)O)n1 [MK1775] (first compound 1 µM, partner dose 0.02 µM) | 104 | 91.8 | 101 | 89.1 | 99.7 | 95.1 | 99.8 | 97.6 | 106 | 89.2 | 80.4 | 83 | 83 | 91.5 | 84.3 | 83.9
9 | NC1(c2ccc(-c3nc4ccn5c(=O)[nH]nc5c4cc3-c3ccccc3)cc2)CCC1 + C=CCn1c(=O)c2cnc(Nc3ccc(N4CCN(C)CC4)cc3)nc2n1-c1cccc(C(C)(C)O)n1 [MK1775] (first compound 0.4 µM, partner dose 0.02 µM) | 93.4 | 91.3 | 111 | 73.8 | 61.6 | 83.8 | 72.2 | 62.1 | 77.7 | 76.7 | 58.3 | 84.4 | 62.2 | 59.3 | 98.7 | 112
10 | CCCS(=O)(=O)Nc1ccc(F)c(C(=O)c2c[nH]c3ncc(Cl)cc23)c1F + COc1ccc2c(c1)CCC1C2CCC2(C)C(NCCCCCCN3C(=O)C=CC3=O)CCC12 [U73122] (first compound 0.08 µM, partner dose 0.4 µM) | 85.6 | 111 | 98.6 | 90.1 | 80 | 106 | 144 | 108 | 87.7 | 63.6 | 102 | 109 | 129 | 103 | 99 | 94.2
11 | CN(c1ncccc1CNc1nc(Nc2ccc3c(c2)CC(=O)N3)ncc1C(F)(F)F)S(C)(=O)=O + O=C(Nc1ccccc1)c1cc([N+](=O)[O-])ccc1Cl [GW9662] (first compound 0.08 µM, partner dose 2 µM) | 95.3 | 103 | 73.9 | 57.9 | 104 | 89.5 | 93.6 | 103 | 88.2 | 83.9 | 79.7 | 97.9 | 92 | 119 | 119 | 97.7
12 | C=C(c1ccc(C(=O)O)cc1)c1cc2c(cc1C)C(C)(C)CCC2(C)C [Bexarotene] + COc1cc(N2CCC(N3CCN(C)CC3)CC2)ccc1Nc1ncc(Cl)c(Nc2ccccc2S(=O)(=O)C(C)C)n1 [NVP-TAE684] (first compound 2 µM, partner dose 0.08 µM) | 95.8 | 72 | 88.4 | 98.2 | 89.8 | 99.6 | 117 | 99.4 | 78.3 | 93.1 | 95.6 | 100 | 101 | 84.5 | 77.7 | 93.8
13 | CS(=O)(=O)c1ccc(C(=O)Nc2ccc(Cl)c(-c3ccccn3)c2)c(Cl)c1 [vismodegib] + O=C(O)C(=O)Nc1sc2c(c1C(=O)O)CCNC2 [TCS401] (first compound 1 µM, partner dose 1.66667 µM) | 102 | 122 | 122 | 118 | 94.9 | 111 | 100 | 96.2 | 92.8 | 99.3 | 118 | 95.5 | 88.9 | 90 | 103 | 101
14 | NC1(c2ccc(-c3nc4ccn5c(=O)[nH]nc5c4cc3-c3ccccc3)cc2)CCC1 + C[C@@H]1CCN(C(=O)CC#N)C[C@@H]1N(C)c1ncnc2[nH]ccc12 [CP690550] (first compound 0.4 µM, partner dose 1 µM) | 102 | 82.8 | 103 | 86.1 | 61.3 | 87.1 | 73.8 | 86.2 | 80.7 | 85.1 | 62.8 | 96.4 | 80.7 | 56.6 | 75.7 | 49.8
15 | C=C(c1ccc(C(=O)O)cc1)c1cc2c(cc1C)C(C)(C)CCC2(C)C [Bexarotene] + O=C(O)c1ccc(-c2c[nH]c3ncc(-c4ccccc4)cc23)cc1C1CCCC1 [GSK650394] (first compound 2 µM, partner dose 0.16 µM) | 102 | 96.7 | 85.5 | 122 | 78.8 | 96.5 | 111 | 90.1 | 123 | 92.5 | 89.2 | 99.1 | 95.9 | 82 | 103 | 88.6
16 | NC1(c2ccc(-c3nc4ccn5c(=O)[nH]nc5c4cc3-c3ccccc3)cc2)CCC1 + O=c1cc(-c2cccc3c2Sc2ccccc2S3)oc(N2CCOCC2)c1 [KU55933] (first compound 0.4 µM, partner dose 1 µM) | 96.4 | 78.1 | 102 | 87 | 74.6 | 82.5 | 83.5 | 96.1 | 83.5 | 73.2 | 76.4 | 95.2 | 91.1 | 65.6 | 131 | 103
17 | C=C(c1ccc(C(=O)O)cc1)c1cc2c(cc1C)C(C)(C)CCC2(C)C [Bexarotene] + CO[C@@H]1[C@H](N(C)C(=O)c2ccccc2)C[C@H]2O[C@]1(C)n1c3ccccc3c3c4c(c5c6ccccc6n2c5c31)C(=O)NC4 [Midostaurin] (first compound 2 µM, partner dose 0.08 µM) | 92 | 79.4 | 71.4 | 88.3 | 66.5 | 76.6 | 91.7 | 65.2 | 77 | 72.7 | 85.1 | 60.5 | 87.4 | 46.9 | 84.1 | 93
18 | C=C(c1ccc(C(=O)O)cc1)c1cc2c(cc1C)C(C)(C)CCC2(C)C [Bexarotene] + COc1ccc2c(c1)CCC1C2CCC2(C)C(NCCCCCCN3C(=O)C=CC3=O)CCC12 [U73122] (first compound 2 µM, partner dose 0.4 µM) | 98.6 | 78.2 | 59.1 | 99.3 | 78.5 | 98.5 | 103 | 91.3 | 88.3 | 91.5 | 92.5 | 77.5 | 104 | 94.9 | 102 | 105
19 | CN(c1ncccc1CNc1nc(Nc2ccc3c(c2)CC(=O)N3)ncc1C(F)(F)F)S(C)(=O)=O + O=C(O)c1ccc2c(c1)nc(Nc1cccc(Cl)c1)c1ccncc12 [CX4945] (first compound 0.08 µM, partner dose 0.4 µM) | 84 | 94.3 | 72.2 | 116 | 63.4 | 78.6 | 90.8 | – | – | 93.5 | 88 | 86.4 | 94.6 | 111 | 95.7 | 79.6
